The target of experiment [1] is His-tagged recombinant human RSPO2 protein (human) (UniProt Q6UXX9). Kind of experiment: pull-down; His-tagged RSPO2 (about 20 μg) bound to Ni2+-NTA agarose beads (Pierce Cobalt kit), incubated 3 h at 4°C with 200 μg HEK293T cell extract containing Flag-tagged integrin αv or β3; Western blot with anti-His and anti-Flag; only the target purified. On the technique in general: Immunoblotting shows a protein as a band on a membrane.

Chains of the proteins cited; added tags and fusions are not shown. Lines headed by an entry give the natural chain unless they say otherwise; changes in a name come on top. Residues count along the entry.
UniProt P05106, residues 27-788: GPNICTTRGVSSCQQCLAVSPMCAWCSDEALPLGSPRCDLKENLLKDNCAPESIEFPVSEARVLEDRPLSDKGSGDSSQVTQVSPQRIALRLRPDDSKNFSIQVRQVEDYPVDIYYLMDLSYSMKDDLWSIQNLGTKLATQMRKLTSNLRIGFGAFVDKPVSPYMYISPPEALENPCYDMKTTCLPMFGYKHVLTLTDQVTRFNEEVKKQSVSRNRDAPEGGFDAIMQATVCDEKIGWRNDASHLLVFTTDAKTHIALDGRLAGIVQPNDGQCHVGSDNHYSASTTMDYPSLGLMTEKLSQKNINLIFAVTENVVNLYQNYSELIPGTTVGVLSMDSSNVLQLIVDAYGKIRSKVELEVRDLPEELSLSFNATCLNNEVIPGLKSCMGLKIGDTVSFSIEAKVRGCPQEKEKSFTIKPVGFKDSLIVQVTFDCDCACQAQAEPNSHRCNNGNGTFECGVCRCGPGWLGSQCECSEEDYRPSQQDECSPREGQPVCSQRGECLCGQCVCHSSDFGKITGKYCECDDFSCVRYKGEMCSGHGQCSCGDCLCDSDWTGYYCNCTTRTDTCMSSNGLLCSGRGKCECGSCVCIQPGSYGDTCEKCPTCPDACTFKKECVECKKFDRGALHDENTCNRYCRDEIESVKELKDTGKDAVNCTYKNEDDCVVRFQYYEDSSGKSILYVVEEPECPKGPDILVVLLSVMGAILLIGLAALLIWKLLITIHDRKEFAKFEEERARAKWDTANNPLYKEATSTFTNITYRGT
UniProt P06756, residues 31-1048: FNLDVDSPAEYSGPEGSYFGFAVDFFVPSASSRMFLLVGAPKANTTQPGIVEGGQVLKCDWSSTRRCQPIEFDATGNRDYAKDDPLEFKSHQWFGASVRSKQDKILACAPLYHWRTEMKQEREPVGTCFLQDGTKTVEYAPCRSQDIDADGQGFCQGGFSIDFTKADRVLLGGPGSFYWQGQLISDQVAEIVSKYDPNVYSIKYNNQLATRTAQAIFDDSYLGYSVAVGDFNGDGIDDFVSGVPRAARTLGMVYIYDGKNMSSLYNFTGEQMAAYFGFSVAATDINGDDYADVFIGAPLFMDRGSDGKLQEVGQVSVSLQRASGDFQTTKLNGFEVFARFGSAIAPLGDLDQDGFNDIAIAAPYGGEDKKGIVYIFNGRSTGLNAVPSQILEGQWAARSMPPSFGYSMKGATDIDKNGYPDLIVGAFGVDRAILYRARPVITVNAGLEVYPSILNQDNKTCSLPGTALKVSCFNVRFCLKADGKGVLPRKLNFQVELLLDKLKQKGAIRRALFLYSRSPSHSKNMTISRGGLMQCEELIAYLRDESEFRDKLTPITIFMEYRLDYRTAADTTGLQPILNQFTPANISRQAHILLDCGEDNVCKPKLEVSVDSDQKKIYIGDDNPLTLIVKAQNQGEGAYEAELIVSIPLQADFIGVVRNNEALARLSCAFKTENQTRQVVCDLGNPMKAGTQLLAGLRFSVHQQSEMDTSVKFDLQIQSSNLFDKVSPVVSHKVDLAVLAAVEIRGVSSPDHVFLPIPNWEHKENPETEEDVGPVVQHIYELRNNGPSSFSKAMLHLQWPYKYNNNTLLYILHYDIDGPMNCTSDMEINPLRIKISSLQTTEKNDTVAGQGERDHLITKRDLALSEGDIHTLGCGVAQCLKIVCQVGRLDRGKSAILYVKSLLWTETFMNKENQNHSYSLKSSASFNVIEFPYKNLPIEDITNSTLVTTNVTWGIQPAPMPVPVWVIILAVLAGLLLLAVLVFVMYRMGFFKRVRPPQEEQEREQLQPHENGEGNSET

For experiment [2], the target named is myc-tagged full-length RSPO2 (UniProt Q6UXX9). Kind of experiment: co-IP; OVCAR3 cells transfected with empty vector, myc-tagged RSPO2 (WT), FUs or TSP; lysates immunoprecipitated and probed with anti-Myc, anti-LGR4 or anti-integrin-β3 (Figure 6G).
Experiment [3] addresses T1, myc-tagged RSPO2 TSP mutant (145-243) (UniProt Q6UXX9).
T1 sequence: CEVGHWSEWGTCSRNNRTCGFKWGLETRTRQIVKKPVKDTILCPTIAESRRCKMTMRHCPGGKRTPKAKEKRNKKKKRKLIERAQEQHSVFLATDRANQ
The experiment is described as above.

For experiment [4], the target named is myc-tagged RSPO2 FUs mutant (1-146) (UniProt Q6UXX9). The description is as above.
Experiment [5] deals with endogenous RSPO2 (human (endogenous in A2780 and OVCAR3)) (UniProt Q6UXX9). The experiment can be described thus: co-IP; endogenous proteins in A2780 and OVCAR3 lysates, reciprocal (Figures 5F, 6E); 50 mM Tris-HCl pH 7.5, 150 mM NaCl, 1% Triton X-100, 1 mM EDTA, 10% glycerol; 4°C.
The target of experiment [6] is endogenous integrin β3 (human (endogenous in A2780 and OVCAR3)) (UniProt P05106). Described as above.

No constants are given. Whether binding was seen depends on the method and setting. Binding seen in cells or lysates may run through a third protein. Some results given as binding are weak or reduced against the parent protein; the word gives no strength. For some of these results: Where a sequence is shown, tags or fusion partners need not be part of it.

Take “Flag-tagged integrin αv (from UniProt P06756-1 31-1048) (receptor)”: the binding entry in experiment [1] is recorded as “no binding”. Take “Flag-tagged integrin β3 (from UniProt P05106-1 27-788) (receptor)”: the binding entry in experiment [1] is given as “binds”. As for “endogenous integrin β3 (from UniProt P05106 27-788) (receptor)”, the binding entry in experiment [2] is reported as “binds”; in experiment [3] it was “no binding”; in experiment [4] it was “binds”; in experiment [5], “binds”. With “endogenous RSPO2 (from UniProt Q6UXX9 22-243) (ligand)”, the binding result in experiment [6] is recorded as “binds”.
